Some of the results follow.

In this assay the test system is PfSIP2 AP2 domain 1 (GST-tagged). Put plainly: gcPBM binding intensity (ln(normalized median fluorescence intensity)); higher = stronger DNA binding. Summed up: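 Plasmodium falciparum DNA-binding domains carrying a GST tag were expressed in E. coli and applied for 1 h, at about 25 μg on average, to an Agilent 4 × 180k array. The array held primer-extended double-stranded 36-bp intergenic genomic probes together with negative controls, and binding took place in 1× PBS with 1% milk, 0.2 mg/ml BSA, 0.5% salmon testes DNA and 0.03% Triton X-100. An Alexa488 anti-GST antibody detected bound protein, and the array was scanned at 488 nm. Binding intensity is taken as the highest Masliner-normalised natural-log median intensity across replicate spots of either probe orientation.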
As for “ATATACAAAGGATTAACACACATATTATTATATATA [CACACA_site1880]”, the “gcPBM binding intensity (ln)” value turned out to be 6.87.

With “AGAAAAAAATAATGTACACACACATATATGTTTATA [CACACA_site7946]”, the “gcPBM binding intensity (ln)” value was 6.94.

As for “TAAATGTCTGTTAATGCACACGATATGTCTATATAT [CACACA_site2352]”, the “gcPBM binding intensity (ln)” value came to 7.19.

Turning to “CTTTCTATATAAAATCGTACATATATAATATTATAT [XGTACX_site5807]”, the “gcPBM binding intensity (ln)” value is 7.3.

Regarding “TATATTAAGAAACACACACACATATATATATATATA [CACACA_site1609]”, the “gcPBM binding intensity (ln)” value stood at 9.76.

In the case of “TTCCTATTTCCTATGTGTACTTATAAATAAGTGTCT [XGTACX_site3725]”, the “gcPBM binding intensity (ln)” value was 7.14.

As for “GAAATTATAAATTGGACACACACATAAAAAATATGT [CACACA_site7957]”, the “gcPBM binding intensity (ln)” value is 6.91.

Regarding “TATAAAATATATATCTGTACGTATTTTATTTTTTAT [XGTACX_site6257]”, the “gcPBM binding intensity (ln)” value was 7.11.

For the sequence “TATAAGCAAAGACACACACACATATAAATATAAATA [CACACA_site7740]”, the “gcPBM binding intensity (ln)” value turned out to be 7.07.

On to “AATACAATATAAAGGTGTACATATATATATATATAT [XGTACX_site68]”, for which the “gcPBM binding intensity (ln)” value amounted to 9.18.

Regarding “ATGTAGATAGATAGGGTGCTAAAAATAAGATTTATA [GTGCAC_site9602]”, the “gcPBM binding intensity (ln)” value turned out to be 8.92.

Take “AAAAAAAAAAAAAAAACACACACAACACCCATACCT [CACACA_site9208]”: the “gcPBM binding intensity (ln)” value came to 7.89.

Regarding “TACAAAATATTTTACACACACATATAAATACCTATA [CACACA_site7272]”, the “gcPBM binding intensity (ln)” value came out at 7.19.

Turning to TATATATATATATGAGTGCATATGTGTAATATAAAA, the “gcPBM binding intensity (ln)” value is 9.27.

Regarding “TATATAATTATTTGATGTACACTACAATGTATTTGT [XGTACX_site7991]”, the “gcPBM binding intensity (ln)” value is 7.16.

With “TTATGTTCTTAATGCACACTTATAAGTATCTTATAA [CACACA_site1394]”, the “gcPBM binding intensity (ln)” value stood at 7.3.

Turning to “TTAACATTTTAAAAATGTACATTTATATACATAAAT [XGTACX_site922]”, the “gcPBM binding intensity (ln)” value is 6.96.

As for “AGAAAAATTCTAAGAACATGCAAAAAAATAAAAAAA [TGCATGCA_site293]”, the “gcPBM binding intensity (ln)” value stood at 6.84.

For “TCTAATGTAATGCATACACACAACTATCCATCAAAA [CACACA_site534]”, the “gcPBM binding intensity (ln)” value was 6.93.

On to “AAAAAATAAATAAATATACACACCATATATATATTT [CACACA_site2854]”, for which the “gcPBM binding intensity (ln)” value is 6.85.

For the sequence “TACACGCATAGACACACACACACACGCATATAAATA [CACACA_site6446]”, the “gcPBM binding intensity (ln)” value was 7.47.

On to “TATACCTATAGACACACACACATAAATAGATATATA [CACACA_site6748]”, for which the “gcPBM binding intensity (ln)” value was 7.19.

With “TTTTTTTTTTTAAATAGTACACATATATATATATAT [XGTACX_site6983]”, the “gcPBM binding intensity (ln)” value stood at 9.28.

Regarding “AAAAAAAAAAAAAAAAGTACAAAAAAAAAAAAAAAA [XGTACX_site4549]”, the “gcPBM binding intensity (ln)” value was determined as 7.63.

“TTTTATTTTTCTAGTAGTACTTCTTTTTATAATATA [XGTACX_site1181]”: the “gcPBM binding intensity (ln)” value stood at 6.83.

Take “AGTTTACACCTTGTGAGTACATACATACATATATAT [XGTACX_site8793]”: the “gcPBM binding intensity (ln)” value was 7.26.

“CACACCATATAATATATATATATGTATATATTTATA [CACACA_negctrl_site397]”: the “gcPBM binding intensity (ln)” value was 7.15.

Take “TTTTTTTTTTTTTTGTCACACACCTTCATAAGAAAA [CACACA_site1166]”: the “gcPBM binding intensity (ln)” value stood at 7.09.

Consider “TAAAAGGAACAAAATTGTACTTAAAAGACAAAGTTA [XGTACX_site7661]”, for which the “gcPBM binding intensity (ln)” value turned out to be 6.75.

As to “ACACAAAAATAAAAATGTACAAATTAAAAAAAATGA [XGTACX_site2083]”, the “gcPBM binding intensity (ln)” value stood at 6.96.

Turning to “TTTGTTCTATGGAGTTTAAAATGTAATATATATTAA [GTGCAC_negctrl_site151]”, the “gcPBM binding intensity (ln)” value was 7.

On to “ATCCTGAACAGAATATGTATAAACAGAAGGAAACAA [CACACA_negctrl_site1805]”, for which the “gcPBM binding intensity (ln)” value came out at 7.21.

On to “ATATATATTAATAGTTGTACTATTATAATATTACAA [XGTACX_site1213]”, for which the “gcPBM binding intensity (ln)” value was 7.

Consider “ATATATATATATATATATATATATATATTTATATAT [GTGCAC_negctrl_site180]”, for which the “gcPBM binding intensity (ln)” value was found to be 9.13.

Turning to “CTTTGTAGTTGGTCCACACACATATATGGAAGAATA [CACACA_site1280]”, the “gcPBM binding intensity (ln)” value came out at 7.29.

Take “TAATAATAGAGACACACACACATTTTTAATAATACA [CACACA_site6691]”: the “gcPBM binding intensity (ln)” value amounted to 7.

As for “TTTTAATTTATCGACACACGCATGAATAGAAATTAG [CACACA_site3361]”, the “gcPBM binding intensity (ln)” value is 6.87.

Consider “AAAAAAAAAAAAAAAACACACATATAGATTATTGTA [CACACA_site7797]”, for which the “gcPBM binding intensity (ln)” value came out at 7.5.

On to “TATTTTTATTTTCCTTCACACATTTTTTATATTTTT [CACACA_site5830]”, for which the “gcPBM binding intensity (ln)” value was 6.92.

As for “TTATAATTTAATAAATGTACATAAATAATATACATA [XGTACX_site7271]”, the “gcPBM binding intensity (ln)” value was found to be 7.08.

For the sequence “AGACAATATCTTATTTGTACATATGTATTCCTCATA [XGTACX_site5757]”, the “gcPBM binding intensity (ln)” value is 7.07.

Take “ACTTTTTTTTTTTTTTTAGATTACATAAATATAAAT [CACACA_negctrl_site139]”: the “gcPBM binding intensity (ln)” value is 7.56.

For “TATGTATATTTAAATGCATGTGATTATTTTTGACTT [TGCATGCA_site568]”, the “gcPBM binding intensity (ln)” value came out at 7.05.

Consider TTATAAATTTAAAAAGTGCATAATAATAACAAAAAG, for which the “gcPBM binding intensity (ln)” value stood at 8.93.

For the sequence “ATTATGGATACATAAACACACATATATATAAAAAAA [CACACA_site4303]”, the “gcPBM binding intensity (ln)” value stood at 7.01.

Take “ACATGATAAATAGTCACACATAAATATAATATATAT [CACACA_site5207]”: the “gcPBM binding intensity (ln)” value stood at 7.15.

Consider “AATTATTCATAAAATGCATGTACATGGTTTAATATT [TGCATGCA_site87]”, for which the “gcPBM binding intensity (ln)” value was determined as 6.99.

For “TCGTAAACTTTATGCACACACATATACATATTTCAT [CACACA_site739]”, the “gcPBM binding intensity (ln)” value was 7.35.

Regarding “ATACATGTTTTATGTGCACACAAAGTTGTTATGAGG [CACACA_site4032]”, the “gcPBM binding intensity (ln)” value was 8.79.

With “ATAATACACAAGCACACACACACACGGATATTTATA [CACACA_site6714]”, the “gcPBM binding intensity (ln)” value is 7.19.

On to “ATAATTATATTTTATTCACACATCGTTATATAGTAA [CACACA_site4743]”, for which the “gcPBM binding intensity (ln)” value was found to be 7.1.

Regarding “AAATGCGTATATAACGCATGTATAAGAACATTTTTT [TGCATGCA_site225]”, the “gcPBM binding intensity (ln)” value turned out to be 6.75.

As for “TTATAATCTATACATATATATGTATGTATGTCTCAA [CACACA_negctrl_site1702]”, the “gcPBM binding intensity (ln)” value is 6.9.

Regarding “GAAGTATTATTAAAGCTGCACTTTTCTAAAATAAAC [GTGCAC_site9429]”, the “gcPBM binding intensity (ln)” value came to 8.63.

In the case of “ACATCATTTTTATGTACACACACATATACGTTGAAT [CACACA_site5095]”, the “gcPBM binding intensity (ln)” value stood at 7.43.

“TAAAATTTACAACACTGTACTTGAATTTATCTTTAA [XGTACX_site241]”: the “gcPBM binding intensity (ln)” value stood at 7.

For the sequence “CATTAATTTAATAAATGTACATAAAATATATATTAT [XGTACX_site8085]”, the “gcPBM binding intensity (ln)” value turned out to be 7.22.

(Values after the supplement of paper PMC11417369.)
